Assay results taken from the supplement of paper PMC4604168 (melanoma cell lines).
Some of the results follow. Repeats are few or missing, and single values can be far off.

Columns and labels:
Assay in all cases: cell count relative to DMSO control; melanoma cells; higher = more viable cells
Details in all cases: library dose: low library concentration; 72 h
WM115 = tested on: WM115
WM1716 = tested on: WM1716
WM1745 = tested on: WM1745
WM3526 = tested on: WM3526
WM3619 = tested on: WM3619
WM451Lu = tested on: WM451Lu
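Also: cell number obtained by counting DAPI-stained nuclei in high-throughput microscope images with image analysis software, screen run in 1,536-well plates.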

| Compound | cell count (WM115) | cell count (WM1716) | cell count (WM1745) | cell count (WM3526) | cell count (WM3619) | cell count (WM451Lu) |
| --- | --- | --- | --- | --- | --- | --- |
| Cc1ccc(NC(=O)c2cccc(N(C)C)c2)cc1NC(=O)c1ccc(O)cc1 + COc1cc2c(Oc3ccc4[nH]c(C)cc4c3F)ncnc2cc1OCCCN1CCCC1 [cediranib] (first compound 2 µM, partner dose 0.4 µM) | 97.2% | 126% | 96.6% | 118% | 108% | 105% |
| CC(C)(C)c1cnc(CSc2cnc(NC(=O)C3CCNCC3)s2)o1 + C[C@@H]1CCN(C(=O)CC#N)C[C@@H]1N(C)c1ncnc2[nH]ccc12 [CP690550] (first compound 0.01 µM, partner dose 1 µM) | 98% | 93.2% | 94.5% | 97.4% | 93% | 80.3% |
| CCCCCCCCc1ccc(CCC(N)(CO)CO)cc1 [fingolimod] + Nc1nc(F)nc2c1ncn2[C@@H]1O[C@H](CO)[C@@H](O)[C@@H]1O [fludarabine] (first compound 2 µM, partner dose 0.2 µM) | 89.1% | 74.8% | 71.4% | 28.8% | 94.4% | 56.6% |
| CN(NC(=O)CC(=O)NN(C)C(=S)c1ccccc1)C(=S)c1ccccc1 + CCCCCCCCCCCC1=C(O)C(=O)C=C(O)C1=O [Embelin] (first compound 0.006 µM, partner dose 1.2 µM) | 92.9% | 84.2% | 50% | 93% | 84.1% | 104% |
| COc1cc2c(Oc3ccc4[nH]c(C)cc4c3F)ncnc2cc1OCCCN1CCCC1 [cediranib] + CCCCCCCCCCCC1=C(O)C(=O)C=C(O)C1=O [Embelin] (first compound 0.4 µM, partner dose 1.2 µM) | 95.5% | 109% | 85.1% | 111% | 107% | 112% |
